Measurements as given in PMC6900184, “The Escherichia coli MarA protein regulates the ycgZ‐ymgABC operon to inhibit biofilm formation”.
Results are given in words; binding and its absence hold for the method and conditions named. For some assays here: Binding seen in cells or lysates may run through a third protein. Some binding calls cover weakened binding; strength is not graded here. For some assays here: Where a sequence is shown, tags or fusion partners need not be part of it.

The chains behind the UniProt entries cited, without tags or fusion partners.
UniProt P75993: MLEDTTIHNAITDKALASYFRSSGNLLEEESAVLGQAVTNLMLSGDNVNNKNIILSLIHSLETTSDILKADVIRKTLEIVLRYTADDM

How the values were obtained:
YcgZ (Escherichia coli) = biological target: T1, YcgZ (Escherichia coli) (UniProt P75991); experiment: two-hybrid; BacterioMatch II bacterial two-hybrid; fusions to lambda cI (pBT) and to RNAP alpha-NTD (pTRG) in a histidine auxotrophic E. coli XL1-Blue MRF' derivative; growth on selective medium with 3-AT, 24 h at 37°C and a further 48 h at 28°C; five independent cotransformants patched
T1 sequence: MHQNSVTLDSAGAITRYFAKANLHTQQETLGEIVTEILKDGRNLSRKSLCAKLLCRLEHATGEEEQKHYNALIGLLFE

YmgA (Escherichia coli) = biological target: T2, YmgA (Escherichia coli) (UniProt P75992); experiment: as above
T2 sequence: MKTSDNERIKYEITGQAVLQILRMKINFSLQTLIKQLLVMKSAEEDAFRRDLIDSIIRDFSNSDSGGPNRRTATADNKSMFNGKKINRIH

[1] = biological target: T3, His6-RcsB (Escherichia coli) (UniProt P0DMC7); experiment: pull-down; in vivo coelution; His6-tagged bait co-expressed in E. coli MC4100 with the prey, lysate in 50 mM NaH2PO4, 150 mM NaCl, 20 mM imidazole, pH 8, Ni-NTA agarose, elution with 250 mM imidazole; prey detected by immunoblot (anti-FLAG or anti-Strep-Tactin antibody)
T3 sequence: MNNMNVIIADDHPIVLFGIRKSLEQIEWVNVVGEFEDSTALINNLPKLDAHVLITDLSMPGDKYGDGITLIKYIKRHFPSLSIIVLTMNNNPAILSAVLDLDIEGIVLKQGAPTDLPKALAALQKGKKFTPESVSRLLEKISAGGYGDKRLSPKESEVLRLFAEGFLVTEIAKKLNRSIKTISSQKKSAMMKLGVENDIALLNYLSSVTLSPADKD

YmgB (Escherichia coli) = YmgB (Escherichia coli) (UniProt P75993); experiment: two-hybrid; BacterioMatch II bacterial two-hybrid; fusions to lambda cI (pBT) and to RNAP alpha-NTD (pTRG) in a histidine auxotrophic E. coli XL1-Blue MRF' derivative; growth on selective medium with 3-AT, 24 h at 37°C and a further 48 h at 28°C; five independent cotransformants patched
YmgC (Escherichia coli) = biological target: T4, YmgC (Escherichia coli) (UniProt P75994); experiment: as above
T4 sequence: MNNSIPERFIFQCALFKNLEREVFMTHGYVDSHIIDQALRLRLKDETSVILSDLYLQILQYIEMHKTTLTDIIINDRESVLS

[2] = biological target: YmgB-Strep (Escherichia coli) (UniProt P75993); experiment: pull-down; in vivo coelution; YmgB-Strep expressed in E. coli MC4100 ymgA::Flag, lysate in 100 mM Tris-HCl pH 8, 150 mM NaCl, 1 mM EDTA, Strep-Tactin Sepharose, elution with buffer E; prey detected by anti-FLAG immunoblot
[3] = biological target: T5, His6-YmgA (Escherichia coli) (UniProt P75992); experiment: pull-down; in vivo coelution; His6-tagged bait co-expressed in E. coli MC4100 with the prey, lysate in 50 mM NaH2PO4, 150 mM NaCl, 20 mM imidazole, pH 8, Ni-NTA agarose, elution with 250 mM imidazole; prey detected by immunoblot (anti-FLAG or anti-Strep-Tactin antibody)
T5 sequence: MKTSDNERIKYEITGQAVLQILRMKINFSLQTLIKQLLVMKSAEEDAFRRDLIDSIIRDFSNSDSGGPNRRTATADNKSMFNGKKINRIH

In the case of YmgB (from UniProt P75993 1-88), the binding (YcgZ (Escherichia coli)) is reported as “binds” and the binding (YmgA (Escherichia coli)) is reported as “binds”.

YmgB-Strep (from UniProt P75993 1-88) was tested, and the binding [1] was “no binding”.

B1: YmgA (protein, UniProt P75992 1-90)
chain: MKTSDNERIKYEITGQAVLQILRMKINFSLQTLIKQLLVMKSAEEDAFRRDLIDSIIRDFSNSDSGGPNRRTATADNKSMFNGKKINRIH
With B1 the binding (YcgZ (Escherichia coli)) was “binds”.

B2: RcsC histidine kinase domain (domain or fragment, UniProt P0DMC5 476-692)
chain: TVSHELRTPLYGIIGNLDLLQTKELPKGVDRLVTAMNNSSSLLLKIISDILDFSKIESEQLKIEPREFSPREVMNHITANYLPLVVRKQLGLYCFIEPDVPVALNGDPMRLQQVISNLLSNAIKFTDTGCIVLHVRADGDYLSIRVRDTGVGIPAKEVVRLFDPFFQVGTGVQRNFQGTGLGLAICEKLISMMDGDISVDSEPGMGSQFTVRIPLYG
B2 was tested, and the binding (YmgB (Escherichia coli)) was “binds” and the binding (YmgC (Escherichia coli)) was “binds”.

B3: YmgA-FLAG (protein, UniProt P75992 1-90)
chain: MKTSDNERIKYEITGQAVLQILRMKINFSLQTLIKQLLVMKSAEEDAFRRDLIDSIIRDFSNSDSGGPNRRTATADNKSMFNGKKINRIH
B3 was tested, and the binding [2] was “binds”.

B4: YcgZ-Flag (protein, UniProt P75991 1-78)
chain: MHQNSVTLDSAGAITRYFAKANLHTQQETLGEIVTEILKDGRNLSRKSLCAKLLCRLEHATGEEEQKHYNALIGLLFE
With B4 the binding [3] was “binds”.
